Test system: Salmonella typhimurium (TA98, TA100, TA1535, and TA1537) and Escherichia coli (WP2uvrA)
Experiment: Ames test (bacterial reverse-mutation test)
Settings: in vitro

Cn1cnc(Cn2c(=O)[nH]/c(=N\c3cc4cn(C)nc4cc3Cl)n(Cc3cc(F)c(F)cc3F)c2=O)n1 [Compound 3, (6E)-6-[(6-Chloro-2-methyl-2H-indazol-5-yl)imino]-3-[(1-methyl-1H-1,2,4-triazol-3-yl)methyl]-1-(2,4,5-trifluorobenzyl)-1,3,5-triazinane-2,4-dione]
mutagenicity: no safety concerns

— PMC8982737, “Discovery of S-217622, a Noncovalent Oral SARS-CoV-2 3CL Protease Inhibitor Clinical Candidate for Treating COVID-19” (Journal of Medicinal Chemistry, 2022)
